According to the supplement of paper PMC12217912:
The list shows a part of the results. The full chains were built here from the parent and the listed change. Values near 0.05 are background.

B1: TEV protease; numbered along this chain (parent)
chain: MGESLFKGPRDYNPISSSICHLTNESDGHTTSLYGIGFGPFIITNKHLFRRNNGTLVVQSLHGVFKVKDTTTLQQHLVDGRDMIIIRMPKDFPPFPQKLKFREPQREERICLVTTNFQTKSMSSMVSDTSCTFPSGDGIFWKHWIQTKDGQCGSPLVSTRDGFIVGIHSASNFTNTNNYFTSVPKNFMELLTNQEAQQWVSGWRLNADSVLWGGHKVFMVKPEEPFQPVKEATQL

Variants of: B1
Experiment: raw area under fraction-flipped curve 0-4 h after induction (AUC4h, not background-subtracted), DNA-recorder readout of cleavage of the substrate (dimensionless); higher = more cleavage of the substrate by the protease variant
Settings: temperature: 34 °C; time window: 0-4 h after rhamnose induction
Method: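 In vivo DNA recorder in E. coli TOP10(DE3) ΔrhaA at 34 °C. Each TEVp single-site mutant (parent TEVp 0) is paired with a single-site variant of the 7-mer TEVs (canonical ENLYFQ|S). The substrate sits between flexible linkers in a Bxb1-sfGFP-TEVs-SsrA fusion, so cleavage stabilises Bxb1 and speeds flipping of a recombination array, read by NGS. The value is the raw area under the fraction-flipped curve over 0-4 h after rhamnose induction (AUC4h), with ≥20 reads per time point. It is not background-subtracted; inactive controls average about 0.047.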
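Further: Bxb1 expression induced with 0.2% (w/v) L-rhamnose at OD600 near 0.5, cultures sampled hourly, flipped fraction per protease–substrate barcode pair counted by paired-end Illumina sequencing.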

Variant	area with substrate CNLYFQS	area with substrate DNLYFQS	area with substrate FNLYFQS	area with substrate GNLYFQS	area with substrate HNLYFQS	area with substrate INLYFQS	area with substrate KNLYFQS	area with substrate LNLYFQS	area with substrate NNLYFQS	area with substrate PNLYFQS	area with substrate SNLYFQS	area with substrate VNLYFQS	area with substrate WNLYFQS	area with substrate YNLYFQS	area with substrate TNLYFQS	area with substrate MNLYFQS	area with substrate RNLYFQS	area with substrate QNLYFQS
T30Q	0.0785	0.0727	0.0575	0.0691	0.0591	0.0651	0.0671	0.0668	0.0671	0.0612	0.0678	0.0713	0.0572	0.0664	–	–	–	–
T31D	0.0685	0.0794	–	–	0.0573	0.065	0.0765	0.0603	0.0491	0.06	0.0584	0.0474	0.0597	0.055	0.0597	–	–	–
T31K	0.0627	0.0872	0.0744	0.0846	–	–	0.0574	–	0.0612	0.0599	–	0.0625	0.0647	–	0.0544	0.0553	0.0658	–
T31N	0.0623	0.0682	0.0534	–	0.0567	–	0.0649	0.0726	0.0626	0.0652	0.0716	0.0625	0.0591	0.0572	0.0632	0.0574	–	0.0446
T31S	0.0658	0.0599	–	0.0612	–	0.063	–	0.0685	0.0621	0.0655	0.0572	0.07	0.0661	0.0697	–	–	–	–
L33G	0.0631	0.066	–	0.075	–	0.0981	0.0594	0.0602	0.0654	–	0.0496	0.0597	0.0797	–	0.0586	–	0.0608	–
L33W	0.0588	0.0505	0.0496	0.0794	0.0554	0.0578	0.0559	0.0605	0.0635	0.0606	0.0538	0.049	0.057	0.0525	0.0374	0.0638	–	–
G35W	0.0486	0.0555	0.048	–	0.0449	0.0542	–	0.0496	–	0.0513	–	0.0228	0.0477	0.0501	0.0552	–	–	–
I36F	0.0514	0.0673	0.0641	–	0.0562	–	0.0625	–	–	0.0606	–	0.055	0.0545	0.0578	0.0632	–	0.0682	0.0491
I36Q	0.0363	0.0541	–	0.0422	–	0.0303	0.0496	0.0549	0.0376	0.0638	–	0.066	0.0538	0.0476	–	0.068	0.05	–
G37M	0.0544	0.102	0.0512	–	0.0469	0.0684	0.0364	0.0457	0.059	0.0452	–	0.062	0.0366	0.0552	0.0569	0.0795	–	–
G37V	0.0527	0.071	–	0.0421	0.0554	0.064	0.0593	–	–	–	0.0594	0.0573	0.0412	–	0.0531	0.0532	0.0579	–
F38G	0.028	0.0527	–	–	–	0.0287	–	–	0.0352	–	–	–	0.0295	–	–	–	–	–
F38N	0.0587	0.124	–	0.0489	–	0.0549	–	0.0539	–	0.0447	0.0537	0.0495	0.0602	–	0.0543	–	–	–
F38T	0.0553	0.0641	–	0.0548	0.063	0.0582	0.0548	–	–	0.064	–	0.041	0.0628	0.0713	0.0547	0.0485	0.072	0.0565
G39C	0.0505	0.0534	0.0399	0.0417	0.0532	0.0486	–	0.0463	0.0358	0.0407	–	0.0355	0.0369	–	0.051	0.0461	–	0.0052
G39H	0.0471	0.0479	0.0418	0.0476	0.0477	–	0.0408	0.0456	0.042	0.0379	0.0482	–	0.0398	0.0495	0.0453	0.0501	–	–
G39N	0.0436	0.0451	0.047	0.0402	–	0.0316	0.0289	–	–	0.0484	0.0613	–	0.0381	0.0277	0.0293	0.0439	–	–
G39T	0.0539	0.0576	–	0.0466	0.042	–	0.0415	0.0419	0.038	0.04	–	0.0375	0.0328	0.0429	0.048	0.0393	0.0294	–
P40Y	0.0646	0.0557	0.0705	0.0621	0.064	–	0.0686	0.0549	0.0208	0.0704	–	–	0.052	0.0518	0.0807	0.0712	0.0504	0.0457
F41T	0.0889	0.0691	–	0.0588	0.0593	–	0.069	0.0722	0.0792	0.0542	–	–	–	0.0757	–	0.0502	–	0.0585
I42Q	0.0365	0.0369	0.0326	0.0426	0.0308	0.0466	–	0.0497	–	0.0323	–	0.0397	0.0405	0.0579	0.049	0.037	–	–
I43F	0.0509	0.0651	–	0.0676	0.063	0.0552	0.0552	0.0531	0.0443	0.0602	0.0502	–	0.0592	0.0377	0.0624	0.0492	–	0.0609
I43G	0.0497	0.0448	0.035	–	0.047	–	–	0.0522	0.0435	0.0494	0.0557	–	0.0386	0.0471	0.0411	0.0619	–	–
I43W	0.0521	0.048	0.0624	0.0473	0.0521	0.0422	0.0534	0.0613	0.0492	0.0371	–	–	0.0513	–	0.0401	–	–	0.0535
T44E	0.0462	0.0398	0.0477	–	0.0461	–	0.0463	0.0433	–	0.0228	–	0.0459	–	0.0396	0.0617	–	0.0347	0.0433
T44G	0.0596	0.0516	0.0611	0.0509	–	0.0322	0.0903	–	0.0337	0.0569	0.0582	–	0.052	–	0.0499	–	–	–
